Data from the supplement of paper PMC4967469.
By IC50 is meant the dose at which the fit gives 50% viability; a fit beyond the top or the lowest dose is shown as a bound at that dose. For AUC the same curve is integrated over the 256-fold range of doses and scaled to a fraction; values near 1 show little effect. For some assays here: A top dose marked as inferred was derived from the fitted curves, not read from the paper.

What was measured:
Test in all cases: Viability of human cancer cell lines after 72 h of drug (GDSC screen)
[1] = compound: CCc1cncnc1N1CCN(Cc2nc3ccc(C(F)(F)F)cc3[nH]2)CC1 [PF-4708671]; settings: top dose 10 µM; top dose inferred
Description: (§1)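 Human cancer cell lines in 384-well plates, medium with 10% serum, drug for 72 h over a 256-fold dose range (nine 2-fold or five 4-fold steps up to the top dose). Adherent lines were fixed and stained with the nucleic acid dye Syto60, suspension lines read with resazurin; signal relative to control wells, capped at 0 and 100%. One two-parameter sigmoid per drug and line, fitted in a mixed model over all curves with the slope shared within a line.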

[2] = compound: O=C(NC(COc1ccc2[nH]c(=O)[nH]c2c1)c1ccccc1)c1cccn(Cc2ccc(F)c(F)c2)c1=O [KIN001-244]; settings: top dose 20 µM; top dose inferred
Description: as §1

[3] = compound: CCNC(=O)C[C@@H]1N=C(c2ccc(Cl)cc2)c2cc(OC)ccc2-n2c(C)nnc21 [I-BET-762]; settings: top dose 20 µM; top dose inferred
Description: as §1

[4] = compound: CC(=O)Nc1cccc(-n2c(=O)n(C3CC3)c(=O)c3c(Nc4ccc(I)cc4F)n(C)c(=O)c(C)c32)c1 [Trametinib]; settings: top dose 1 µM
Description: as §1

[5] = compound: CCN1CCN(Cc2ccc(NC(=O)c3ccc(C)c(/C=C/c4cnc5[nH]ccc5c4OC)c3)cc2C(F)(F)F)CC1 [HG-6-64-1]; settings: top dose 5.12 µM; top dose inferred
Description: as §1

[6] = compound: COc1cc2nccc(Oc3ccc(NC(=O)Nc4cc(C)on4)c(Cl)c3)c2cc1OC [AV-951]; settings: top dose 0.128 µM; top dose inferred
Description: as §1

Cell Line | AUC [1] | IC50 [1] | AUC [2] | IC50 [2] | AUC [3] | IC50 [3] | AUC [4] | IC50 [4] | AUC [5] | IC50 [5] | AUC [6] | IC50 [6]
CAL-39 (cervix, adherent) | 0.972 | > 10 µM | 0.978 | > 20 µM | 0.967 | > 20 µM | 0.335 | 21.3 nM | 0.652 | 856 nM | 0.986 | > 128 nM
CAL-51 (breast, adherent) | 0.704 | 2.14 µM | 0.989 | > 20 µM | 0.982 | > 20 µM | 0.943 | > 1000 nM | 0.501 | 322 nM | 0.99 | > 128 nM
CAL-54 (kidney, adherent) | 0.953 | > 10 µM | 0.913 | > 20 µM | 0.896 | > 20 µM | 0.826 | 727 nM | 0.661 | 958 nM | 0.983 | > 128 nM
CAL-62 (thyroid, adherent) | 0.964 | > 10 µM | 0.897 | > 20 µM | 0.901 | > 20 µM | 0.305 | 18.3 nM | 0.766 | 1800 nM | 0.988 | > 128 nM
CAL-72 (osteosarcoma, adherent) | 0.977 | > 10 µM | 0.984 | > 20 µM | 0.984 | > 20 µM | 0.765 | 429 nM | 0.966 | > 5120 nM | 0.983 | > 128 nM
CAL-78 (chondrosarcoma, adherent) | 0.979 | > 10 µM | 0.897 | > 20 µM | 0.962 | > 20 µM | 0.895 | > 1000 nM | 0.757 | 2000 nM | 0.986 | > 128 nM
CAL-85-1 (breast, adherent) | 0.976 | > 10 µM | 0.874 | > 20 µM | 0.871 | > 20 µM | 0.64 | 171 nM | 0.444 | 216 nM | 0.98 | > 128 nM
CAL-120 (breast, adherent) | 0.95 | > 10 µM | 0.793 | 12.3 µM | 0.809 | 14.3 µM | 0.676 | 224 nM | 0.656 | 990 nM | 0.974 | > 128 nM
CAMA-1 (breast, adherent) | 0.95 | > 10 µM | 0.868 | > 20 µM | 0.913 | > 20 µM | 0.971 | > 1000 nM | 0.607 | 678 nM | 0.983 | > 128 nM
CCF-STTG1 (glioma, adherent) | 0.984 | > 10 µM | 0.895 | > 20 µM | 0.988 | > 20 µM | 0.967 | > 1000 nM | 0.626 | 716 nM | 0.962 | > 128 nM
CCK-81 (large intestine, adherent) | 0.92 | > 10 µM | 0.898 | > 20 µM | 0.679 | 3.81 µM | 0.988 | > 1000 nM | 0.879 | 4720 nM | 0.99 | > 128 nM
CFPAC-1 (pancreas, adherent) | 0.971 | > 10 µM | 0.947 | > 20 µM | 0.957 | > 20 µM | 0.75 | 370 nM | 0.695 | 1230 nM | 0.977 | > 128 nM
CHL-1 (melanoma, adherent) | 0.972 | > 10 µM | 0.705 | 4.54 µM | 0.736 | 5.62 µM | 0.478 | 54.7 nM | 0.451 | 238 nM | 0.987 | > 128 nM
CHP-212 (neuroblastoma, adherent) | 0.969 | > 10 µM | 0.985 | > 20 µM | 0.553 | 1.73 µM | 0.061 | < 3.91 nM | 0.603 | 598 nM | 0.988 | > 128 nM
CHSA0108 (chondrosarcoma, adherent) | 0.969 | > 10 µM | 0.902 | > 20 µM | 0.761 | 8.17 µM | 0.836 | 817 nM | 0.611 | 678 nM | 0.978 | > 128 nM
CHSA8926 (chondrosarcoma, adherent) | 0.98 | > 10 µM | 0.951 | > 20 µM | 0.98 | > 20 µM | 0.733 | 390 nM | 0.867 | > 5120 nM | 0.972 | > 128 nM
COLO-205 (large intestine, suspension) | 0.934 | > 10 µM | 0.877 | 19.6 µM | 0.857 | 15.9 µM | 0.198 | 8.06 nM | 0.557 | 457 nM | 0.988 | > 128 nM
COLO-678 (large intestine, semi-adherent) | 0.975 | > 10 µM | 0.966 | > 20 µM | 0.958 | > 20 µM | 0.467 | 49.6 nM | 0.776 | 2670 nM | 0.979 | > 128 nM

Cell Line | AUC [1] | IC50 [1] | AUC [2] | IC50 [2] | AUC [3] | IC50 [3] | AUC [4] | IC50 [4] | AUC [5] | IC50 [5] | AUC [6] | IC50 [6]
COLO-679 (melanoma, adherent) | 0.955 | > 10 µM | 0.973 | > 20 µM | 0.982 | > 20 µM | 0.103 | < 3.91 nM | 0.627 | 750 nM | 0.975 | > 128 nM
COLO-680N (oesophagus, adherent) | 0.97 | > 10 µM | 0.922 | > 20 µM | 0.986 | > 20 µM | 0.871 | > 1000 nM | 0.648 | 889 nM | 0.975 | > 128 nM
COLO-792 (melanoma, adherent) | 0.947 | > 10 µM | 0.974 | > 20 µM | 0.971 | > 20 µM | 0.277 | 14.8 nM | 0.927 | > 5120 nM | 0.979 | > 128 nM
COR-L23 (large cell lung carcinoma, adherent) | 0.972 | > 10 µM | 0.819 | 11 µM | 0.938 | > 20 µM | 0.632 | 143 nM | 0.818 | 2790 nM | 0.985 | > 128 nM
COR-L105 (lung adenocarcinoma, adherent) | 0.915 | > 10 µM | 0.781 | 10.3 µM | 0.632 | 3.15 µM | 0.529 | 76.1 nM | 0.585 | 577 nM | 0.981 | > 128 nM
CP50-MEL-B (melanoma, adherent) | 0.84 | 6.77 µM | 0.846 | 14.3 µM | 0.84 | 13.5 µM | 0.089 | < 3.91 nM | 0.97 | > 5120 nM | 0.988 | > 128 nM
CS1 (bone, adherent) | 0.971 | > 10 µM | 0.716 | 5.55 µM | 0.973 | > 20 µM | 0.825 | 695 nM | 0.764 | 2060 nM | 0.97 | > 128 nM
Ca9-22 (head and neck, adherent) | 0.921 | > 10 µM | 0.924 | > 20 µM | 0.878 | 17.6 µM | 0.278 | 15.5 nM | 0.751 | 1580 nM | 0.985 | > 128 nM
Ca-Ski (cervix, adherent) | 0.983 | > 10 µM | 0.66 | 3.68 µM | 0.768 | 8.39 µM | 0.87 | > 1000 nM | 0.561 | 479 nM | 0.972 | > 128 nM
CaR-1 (large intestine, adherent) | 0.856 | > 10 µM | 0.905 | > 20 µM | 0.978 | > 20 µM | 0.804 | 837 nM | 0.897 | > 5120 nM | 0.972 | > 128 nM
Calu-3 (lung adenocarcinoma, adherent) | 0.972 | > 10 µM | 0.908 | > 20 µM | 0.983 | > 20 µM | 0.78 | 526 nM | 0.853 | > 5120 nM | 0.973 | > 128 nM
Capan-2 (pancreas, adherent) | 0.985 | > 10 µM | 0.979 | > 20 µM | 0.941 | > 20 µM | 0.249 | – | 0.824 | 3950 nM | 0.965 | > 128 nM
ChaGo-K-1 (non-small cell lung carcinoma, adherent) | 0.979 | > 10 µM | 0.906 | > 20 µM | 0.964 | > 20 µM | 0.979 | > 1000 nM | 0.907 | > 5120 nM | 0.979 | > 128 nM
DBTRG-05MG (glioma, adherent) | 0.979 | > 10 µM | 0.92 | > 20 µM | 0.958 | > 20 µM | 0.7 | 254 nM | 0.612 | 685 nM | 0.979 | > 128 nM
DK-MG (glioma, adherent) | 0.791 | 7.2 µM | 0.932 | > 20 µM | 0.822 | > 20 µM | 0.449 | 42.4 nM | 0.613 | 762 nM | 0.9 | > 128 nM
DMS-53 (small cell lung carcinoma, adherent) | 0.932 | > 10 µM | 0.988 | > 20 µM | 0.982 | > 20 µM | 0.892 | > 1000 nM | 0.934 | > 5120 nM | 0.988 | > 128 nM
DOK (head and neck, adherent) | 0.869 | > 10 µM | 0.976 | > 20 µM | 0.956 | > 20 µM | 0.266 | 9.41 nM | 0.806 | 4410 nM | 0.975 | > 128 nM
Daoy (medulloblastoma, adherent) | 0.953 | > 10 µM | 0.904 | > 20 µM | 0.845 | 12.5 µM | 0.936 | > 1000 nM | 0.83 | 2810 nM | 0.946 | > 128 nM
